# Measured values from the supplement of paper PMC12217912.
# Some of the results follow. The full chains were built here from the parent and the listed change. Values near 0.05 are background.
# B1: TEV protease; numbered along this chain (parent)
# chain: MGESLFKGPRDYNPISSSICHLTNESDGHTTSLYGIGFGPFIITNKHLFRRNNGTLVVQSLHGVFKVKDTTTLQQHLVDGRDMIIIRMPKDFPPFPQKLKFREPQREERICLVTTNFQTKSMSSMVSDTSCTFPSGDGIFWKHWIQTKDGQCGSPLVSTRDGFIVGIHSASNFTNTNNYFTSVPKNFMELLTNQEAQQWVSGWRLNADSVLWGGHKVFMVKPEEPFQPVKEATQL
# Variants of: B1
# Assay: raw area under fraction-flipped curve 0-4 h after induction (AUC4h, not background-subtracted), DNA-recorder readout of cleavage of the substrate (dimensionless); higher = more cleavage of the substrate by the protease variant
# Settings: temperature: 34 °C; time window: 0-4 h after rhamnose induction
# Method: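 In vivo DNA recorder in E. coli TOP10(DE3) ΔrhaA at 34 °C. Each TEVp single-site mutant (parent TEVp 0) is paired with a single-site variant of the 7-mer TEVs (canonical ENLYFQ|S). The substrate sits between flexible linkers in a Bxb1-sfGFP-TEVs-SsrA fusion, so cleavage stabilises Bxb1 and speeds flipping of a recombination array, read by NGS. The value is the raw area under the fraction-flipped curve over 0-4 h after rhamnose induction (AUC4h), with ≥20 reads per time point. It is not background-subtracted; inactive controls average about 0.047.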
# 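Note: Bxb1 expression induced with 0.2% (w/v) L-rhamnose at OD600 near 0.5, cultures sampled hourly, flipped fraction per protease–substrate barcode pair counted by paired-end Illumina sequencing.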
variant,measurement,value
T132K,area with substrate ENLYCQS,0.0563
same,area with substrate ENLYEQS,0.0528
same,area with substrate ENLYHQS,0.0579
same,area with substrate ENLYKQS,0.0584
same,area with substrate ENLYQQS,0.0488
T132N,area with substrate ENLYCQS,0.0673
same,area with substrate ENLYDQS,0.0596
same,area with substrate ENLYEQS,0.0646
same,area with substrate ENLYHQS,0.0541
same,area with substrate ENLYIQS,0.101
same,area with substrate ENLYKQS,0.0605
same,area with substrate ENLYMQS,0.0591
same,area with substrate ENLYPQS,0.071
same,area with substrate ENLYRQS,0.0538
same,area with substrate ENLYTQS,0.0582
same,area with substrate ENLYWQS,0.0888
T233W,area with substrate ENLYAQS,0.0709
same,area with substrate ENLYCQS,0.0943
same,area with substrate ENLYEQS,0.0584
same,area with substrate ENLYKQS,0.0746
same,area with substrate ENLYLQS,0.0747
same,area with substrate ENLYNQS,0.0828
same,area with substrate ENLYPQS,0.0704
same,area with substrate ENLYVQS,0.119
same,area with substrate ENLYWQS,0.0858
R204D,area with substrate ENLYCQS,0.0803
same,area with substrate ENLYDQS,0.0703
same,area with substrate ENLYEQS,0.0708
same,area with substrate ENLYGQS,0.053
same,area with substrate ENLYHQS,0.0663
same,area with substrate ENLYIQS,0.105
same,area with substrate ENLYKQS,0.0622
same,area with substrate ENLYMQS,0.0818
same,area with substrate ENLYNQS,0.0743
same,area with substrate ENLYQQS,0.0623
same,area with substrate ENLYRQS,0.0599
same,area with substrate ENLYSQS,0.0852
same,area with substrate ENLYTQS,0.0689
same,area with substrate ENLYVQS,0.116
same,area with substrate ENLYWQS,0.0889
same,area with substrate ENLYYQS,0.0788
G213C,area with substrate ENLYCQS,0.0642
same,area with substrate ENLYEQS,0.0593
same,area with substrate ENLYGQS,0.0629
same,area with substrate ENLYHQS,0.0711
same,area with substrate ENLYIQS,0.0505
same,area with substrate ENLYKQS,0.0819
same,area with substrate ENLYSQS,0.0546
L156Y,area with substrate ENLYCQS,0.0522
same,area with substrate ENLYDQS,0.0698
same,area with substrate ENLYEQS,0.0456
same,area with substrate ENLYGQS,0.0497
same,area with substrate ENLYHQS,0.0536
same,area with substrate ENLYKQS,0.0688
same,area with substrate ENLYLQS,0.0472
same,area with substrate ENLYNQS,0.0511
same,area with substrate ENLYQQS,0.0535
same,area with substrate ENLYRQS,0.0663
same,area with substrate ENLYTQS,0.0584
same,area with substrate ENLYVQS,0.0665
R106N,area with substrate ENLYCQS,0.0928
same,area with substrate ENLYDQS,0.0991
same,area with substrate ENLYEQS,0.064
same,area with substrate ENLYGQS,0.0624
same,area with substrate ENLYHQS,0.0661
same,area with substrate ENLYIQS,0.0943
same,area with substrate ENLYKQS,0.0525
same,area with substrate ENLYNQS,0.0554
same,area with substrate ENLYRQS,0.067
same,area with substrate ENLYTQS,0.072
same,area with substrate ENLYVQS,0.111
Q227D,area with substrate ENLYAQS,0.0731
same,area with substrate ENLYDQS,0.0583
same,area with substrate ENLYGQS,0.0646
same,area with substrate ENLYIQS,0.165
same,area with substrate ENLYKQS,0.0621
same,area with substrate ENLYLQS,0.109
same,area with substrate ENLYPQS,0.0688
same,area with substrate ENLYSQS,0.128
same,area with substrate ENLYWQS,0.106
Q227A,area with substrate ENLYAQS,0.0812
same,area with substrate ENLYEQS,0.0849
same,area with substrate ENLYGQS,0.0827
same,area with substrate ENLYSQS,0.0727
W212A,area with substrate ENLYCQS,0.064
same,area with substrate ENLYDQS,0.0432
same,area with substrate ENLYGQS,0.0933
same,area with substrate ENLYVQS,0.0768
same,area with substrate ENLYYQS,0.0889
R109K,area with substrate ENLYCQS,0.0762
same,area with substrate ENLYDQS,0.0602
same,area with substrate ENLYGQS,0.0699
same,area with substrate ENLYHQS,0.0456
same,area with substrate ENLYIQS,0.101
same,area with substrate ENLYKQS,0.0809
same,area with substrate ENLYNQS,0.0032
same,area with substrate ENLYQQS,0.0867
same,area with substrate ENLYSQS,0.0826
same,area with substrate ENLYVQS,0.153
Q194A,area with substrate ENLYCQS,0.0842
same,area with substrate ENLYHQS,0.0693
same,area with substrate ENLYKQS,0.0568
same,area with substrate ENLYLQS,0.0844
same,area with substrate ENLYNQS,0.0501
same,area with substrate ENLYPQS,0.074
same,area with substrate ENLYQQS,0.06
same,area with substrate ENLYVQS,0.0817
N206R,area with substrate ENLYAQS,0.06
same,area with substrate ENLYCQS,0.0885
same,area with substrate ENLYEQS,0.0539
same,area with substrate ENLYGQS,0.062
same,area with substrate ENLYIQS,0.0956
same,area with substrate ENLYKQS,0.0589
same,area with substrate ENLYMQS,0.0781
same,area with substrate ENLYNQS,0.121
same,area with substrate ENLYQQS,0.0569
same,area with substrate ENLYRQS,0.0445
same,area with substrate ENLYSQS,0.0488
same,area with substrate ENLYTQS,0.074
same,area with substrate ENLYVQS,0.0724
same,area with substrate ENLYYQS,0.0429
N206C,area with substrate ENLYCQS,0.049
same,area with substrate ENLYEQS,0.0574
same,area with substrate ENLYGQS,0.069
same,area with substrate ENLYHQS,0.0739
same,area with substrate ENLYIQS,0.121
same,area with substrate ENLYKQS,0.0632
same,area with substrate ENLYMQS,0.0767
same,area with substrate ENLYNQS,0.0624
same,area with substrate ENLYPQS,0.0646
same,area with substrate ENLYQQS,0.0663
same,area with substrate ENLYTQS,0.0765
same,area with substrate ENLYVQS,0.188
same,area with substrate ENLYWQS,0.0788
same,area with substrate ENLYYQS,0.0814
M125Y,area with substrate ENLYCQS,0.0524
same,area with substrate ENLYDQS,0.0517
same,area with substrate ENLYEQS,0.0643
same,area with substrate ENLYGQS,0.0677
same,area with substrate ENLYHQS,0.042
same,area with substrate ENLYMQS,0.0789
same,area with substrate ENLYNQS,0.0578
same,area with substrate ENLYQQS,0.0349
same,area with substrate ENLYSQS,0.0619
same,area with substrate ENLYVQS,0.106
F38V,area with substrate ENLYCQS,0.0817
same,area with substrate ENLYEQS,0.0626
same,area with substrate ENLYGQS,0.0737
same,area with substrate ENLYPQS,0.0978
same,area with substrate ENLYRQS,0.0536
same,area with substrate ENLYWQS,0.0707
same,area with substrate ENLYYQS,0.0635
L5H,area with substrate ENLYCQS,0.0879
same,area with substrate ENLYDQS,0.0691
same,area with substrate ENLYEQS,0.0725
same,area with substrate ENLYGQS,0.0601
same,area with substrate ENLYHQS,0.0832
same,area with substrate ENLYIQS,0.141
same,area with substrate ENLYKQS,0.0618
same,area with substrate ENLYMQS,0.107
same,area with substrate ENLYNQS,0.069
same,area with substrate ENLYSQS,0.0847
same,area with substrate ENLYVQS,0.0952
